# Test results as given in PubChem BioAssay (Tox21).
# The shares of active, inactive and inconclusive entries below differ from those in the screen. A call without a number means that no potency is given here. For part of these data: A potency beside an inconclusive call is a rough fit, not a confirmed value. The source made the active and inactive calls. Unless noted, calls follow the shape of the full dose curve.
# How the values were obtained:
# [1] = p53 small molecule agonists, cell-based qHTS assay (AID 1963582; active = well fitted activation curve with a large enough effect in the signal ratio in the repeat runs, not every such curve was filed as active; inconclusive = weak or mixed curves; the % refers to the signal ratio; also: potency is read from the fitted curve at half-maximal effect); conditions: HCT-116 p53RE-bla reporter, beta-lactamase FRET ratio, 16 h; activation: at 66 µM (top of the series) unless noted
# Procedure, shortened: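 16 h compound exposure (37 C) of p53 response element–bla cells, preceded by 5 h recovery at 37 C/5% CO2; read-out via LiveBLAzer B/G FRET substrate, 2 h RT, fluorescence intensity.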
# [2] = biological target: Beta-2 adrenergic receptor (Homo sapiens) (UniProt P07550); test: Adrenergic beta2 receptor (ADRB2) small molecule agonists, cell-based qHTS assay (AID 1963593); conditions: CHO-ADRB2 cells, cAMP HTRF, 30 min; activation: at 92.4 µM (top of the series) unless noted; also: potency is read from the fitted curve at half-maximal effect;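 as to activation: CHO cells stably overexpressing human ADRB2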
# Chain of UniProt P07550 (P07550 whole entry, looked up): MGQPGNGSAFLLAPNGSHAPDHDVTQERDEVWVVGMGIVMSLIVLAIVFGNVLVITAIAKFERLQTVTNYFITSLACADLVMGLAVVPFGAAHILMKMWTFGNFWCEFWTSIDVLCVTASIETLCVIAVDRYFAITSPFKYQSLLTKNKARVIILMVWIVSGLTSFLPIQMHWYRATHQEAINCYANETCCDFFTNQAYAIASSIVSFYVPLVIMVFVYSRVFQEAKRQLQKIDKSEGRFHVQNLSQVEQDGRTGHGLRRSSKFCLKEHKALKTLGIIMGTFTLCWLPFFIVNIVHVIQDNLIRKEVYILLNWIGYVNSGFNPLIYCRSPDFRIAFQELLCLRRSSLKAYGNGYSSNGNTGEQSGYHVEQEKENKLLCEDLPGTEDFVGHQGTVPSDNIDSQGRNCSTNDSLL
# Procedure, shortened: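 CHO cells stably over-expressing ADRB2 were plated overnight at 37C, then dosed with compounds plus a stimulation mix containing 100uM IBMX and 25uM Ro-20-1724 for 0.5hr at room temperature. cAMP was measured by HTRF competition, 1hr.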
# [3] = biological target: Beta-2 adrenergic receptor (Homo sapiens) (UniProt P07550); test: Adrenergic beta2 receptor (ADRB2) small molecule antagonists, cell-based qHTS assay (AID 1963592); conditions: CHO-ADRB2 cells, isoproterenol-stimulated cAMP HTRF ratio, 0.5 h; activity change, negative = inhibition: at 92.4 µM (top of the series) unless noted; also: nearly all actives have a fitted effect of over 50% in size
# Procedure, shortened: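 Assay format: CHO-ADRB2 cells, 18-20hr seeding at 37C/5% CO2, then compound plus 1nM isoproterenol agonist mix for 0.5hr RT. Homogeneous time-resolved fluorescence cAMP detection after 1hr, expressed as 665/615 nm ratio.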
# [4] = biological target: D(2) dopamine receptor (Homo sapiens) (UniProt P14416); test: Dopamine D2 receptor (DRD2) small molecule antagonists, cell-based qHTS assay (AID 1963595; active = well fitted inhibition curve with a large enough effect in the signal ratio in the repeat runs, with a control signal flat; inconclusive = weak or mixed curves, or effect the other way; the % refers to the signal ratio); conditions: HEK293-DRD2 cAMP HTRF antagonist mode; activity change, negative = inhibition: at 92.4 µM (top of the series) unless noted
# Chain of UniProt P14416 (P14416 whole entry, looked up): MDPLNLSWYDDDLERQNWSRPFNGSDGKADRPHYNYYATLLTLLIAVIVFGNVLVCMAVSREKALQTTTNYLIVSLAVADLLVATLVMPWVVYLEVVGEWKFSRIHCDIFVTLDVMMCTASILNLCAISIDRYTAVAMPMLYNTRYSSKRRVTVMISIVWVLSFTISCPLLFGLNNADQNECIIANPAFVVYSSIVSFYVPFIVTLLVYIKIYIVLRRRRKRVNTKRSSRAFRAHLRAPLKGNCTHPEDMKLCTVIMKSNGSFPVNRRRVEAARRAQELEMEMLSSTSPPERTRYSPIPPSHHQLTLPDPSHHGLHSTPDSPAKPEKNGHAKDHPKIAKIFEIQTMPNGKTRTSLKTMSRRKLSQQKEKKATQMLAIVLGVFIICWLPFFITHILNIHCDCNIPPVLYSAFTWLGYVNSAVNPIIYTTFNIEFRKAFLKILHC
# Procedure, shortened: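 DRD2-HEK293; 0.1 mM Ro20-1724; cpd 10 min RT; NKH477 200 nM + quinpirole 12 nM, 30 min RT; HTRF cAMP (cAMP-d2/anti-cAMP cryptate), 665/620 nm ratio after 1 h.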
# Tags tell the direction and shape of the fitted curve or compound fluorescence and quenching.
smiles,measurement,setting,value
CC(C)Cc1ccc(CC(=O)O)cc1,Potency,[1],inactive
same,Potency,[2],inactive
CCOC(=O)NCCC[Si](OCC)(OCC)OCC,Potency,[1],inactive
same,Potency,[2],inactive
Cc1cc(N)n(-c2ccccc2)n1,Potency,[1],inactive
same,activation,[2],inconclusive: -14.4%
Cn1cccc1,Potency,[1],inactive
same,"activity change, negative = inhibition",[3],inconclusive: -2.58%
same,activation,[2],inconclusive: -29%
same,"activity change, negative = inhibition",[4],inconclusive: -3.69%
ClC/C=C\CCl,Potency,[1],inactive
same,Potency,[2],inactive
CCCCCC(=O)OCC,Potency,[1],"inconclusive: 20.4 µM [falling, single point]"
same,Potency,[2],inactive
OCCO,Potency,[1],inactive
same,activation,[2],inconclusive: 0.795%
O=C1CCC(C2CCCCC2)CC1,Potency,[1],"inconclusive: 32.4 µM [rising, partial curve, poor fit]"
same,Potency,[2],inactive
CCC(O)C(C)(C)C (stereo unspecified),Potency,[1],inactive
same,activation,[2],inconclusive: 3.31%
CC1(C)[C@@H]2CC[C@@]1(C)[C@H](O)C2,Potency,[1],inactive
same,Potency,[2],inactive
COc1cccc(OC)c1O,Potency,[1],inactive
same,Potency,[2],"inconclusive: 0.611 µM [inhibitor, single point]"
NC(=O)c1ccccc1Cl,Potency,[1],inactive
same,Potency,[2],inactive
CCCCCCCN,Potency,[1],inactive
same,activation,[2],inconclusive: 4.63%
O=C1OC(=O)c2cccc3cccc1c23,Potency,[1],inactive
same,Potency,[2],"inconclusive: 49 µM [inhibitor, partial curve, poor fit]"
CC[C@H](C)[C@H](N)C(=O)O,Potency,[1],inactive
same,activation,[2],inconclusive: -48.8% [at 42.5 µM]
CC1=CC[C@H](C(C)C)C=C1,Potency,[1],"inconclusive: 45.8 µM [rising, partial curve]"
same,Potency,[2],inactive
O=C(c1ccc(Cl)cc1)c1ccc(Cl)cc1,Potency,[1],inactive
same,Potency,[2],inactive
